Some of the results follow. Many values rest on one well or one pass, so single values are uncertain.

Some test systems named below: WM115; WM1716; WM1745; WM3526; WM3619; WM451Lu.
Experiment in all cases: cell count relative to DMSO control; melanoma cells; higher = more viable cells
Conditions in all cases: library dose: low library concentration; 72 h
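Further: cell number obtained by counting DAPI-stained nuclei in high-throughput microscope images with image analysis software, screen run in 1,536-well plates.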

As for `C[C@]1(c2nc3c(C(N)=O)cccc3[nH]2)CCCN1` [Veliparib] + C/C(O)=C(\C#N)C(=O)Nc1cc(Br)ccc1Br [LFM-A13] (first compound 1.4 µM, partner dose 2 µM), the cell count with WM115 was 89.3%; with WM1716 it was 89.6%; in the assay with WM1745, 73.5%; in the assay on WM3526, 102%; with WM3619, 107%; with WM451Lu it was 102%.
Consider `Cn1c(=O)n(-c2ccc(C(C)(C)C#N)cc2)c2c3cc(-c4cnc5ccccc5c4)ccc3ncc21` + C[As](C)SC[C@H](NC(=O)CC[C@H](N)C(=O)O)C(=O)NCC(=O)O [Darinaparsin] (first compound 0.004 µM, partner dose 0.4 µM), for which the cell count in the assay with WM115 was found to be 90.5%; in the assay on WM1716, 84.5%; in the assay on WM1745, 106%; in the assay on WM3526, 84.1%; in the assay on WM3619, 90.6%; in the assay on WM451Lu it was 100%.
For the compound `COc1cc(Nc2ncc(F)c(Nc3ccc4c(n3)NC(=O)C(C)(C)O4)n2)cc(OC)c1OC` [Tamatinib] + C/C(O)=C(\C#N)C(=O)Nc1cc(Br)ccc1Br [LFM-A13] (first compound 0.4 µM, partner dose 2 µM), the cell count in the assay on WM115 turned out to be 89.5%; in the assay with WM1716 it was 95.4%; in the assay on WM1745, 62.6%; in the assay with WM3526 it was 80.7%; in the assay on WM3619, 102%; in the assay on WM451Lu it was 90.9%.
`O=c1[nH]nc(Sc2ncc([N+](=O)[O-])s2)n1-c1ccc2c(c1)OCCO2` + C[As](C)SC[C@H](NC(=O)CC[C@H](N)C(=O)O)C(=O)NCC(=O)O [Darinaparsin] (first compound 0.2 µM, partner dose 0.4 µM): the cell count with WM115 came out at 96.8%; in the assay on WM1716 it was 95.6%; in the assay on WM1745, 91.3%; in the assay with WM3526, 97.9%; with WM3619, 71.8%; with WM451Lu, 99.2%.
For the compound `CC(C)(C)c1cnc(CSc2cnc(NC(=O)C3CCNCC3)s2)o1` + C/C(O)=C(\C#N)C(=O)Nc1cc(Br)ccc1Br [LFM-A13] (first compound 0.01 µM, partner dose 2 µM), the cell count in the assay with WM115 worked out at 96.7%; in the assay on WM1716, 74.4%; in the assay with WM1745, 76.6%; in the assay on WM3526, 91.8%; with WM3619, 108%; in the assay on WM451Lu it was 101%.
Take `O=c1[nH]nc(Sc2ncc([N+](=O)[O-])s2)n1-c1ccc2c(c1)OCCO2` + N.N.[Cl][Pt][Cl] [cisplatin] (first compound 0.2 µM, partner dose 1.6 µM): the cell count in the assay with WM115 was 106%; in the assay on WM1716 it was 106%; with WM1745, 91.8%; with WM3526, 91.1%; in the assay on WM3619, 119%; in the assay with WM451Lu, 85.2%.
As to `CCCCCCCCCCCCCCCCCCOP(=O)([O-])OC1CC[N+](C)(C)CC1` [Perifosine] + N.N.[Cl][Pt][Cl] [cisplatin] (first compound 0.4 µM, partner dose 1.6 µM), the cell count in the assay with WM115 turned out to be 96.8%; in the assay on WM1716, 92.2%; with WM1745, 113%; in the assay with WM3526 it was 91.5%; with WM3619, 89.7%; with WM451Lu, 102%.
On to `COc1ccc(C2=N[C@@H](c3ccc(Cl)cc3)[C@@H](c3ccc(Cl)cc3)N2C(=O)N2CCNC(=O)C2)c(OC(C)C)c1` [Nutlin-3] + C/C(O)=C(\C#N)C(=O)Nc1cc(Br)ccc1Br [LFM-A13] (first compound 0.1 µM, partner dose 2 µM), for which the cell count came out at 91.2% with WM115; 85.1% in the assay on WM1716; 94.3% in the assay on WM1745; 88.7% in the assay with WM3526; 98.9% with WM3619; 95.5% with WM451Lu.
For `COc1ccc(C2=N[C@@H](c3ccc(Cl)cc3)[C@@H](c3ccc(Cl)cc3)N2C(=O)N2CCNC(=O)C2)c(OC(C)C)c1` [Nutlin-3] + Cc1cc(SCc2sc(-c3ccc(C(F)(F)F)c(F)c3)nc2C)ccc1OCC(=O)O [GW0742] (first compound 0.1 µM, partner dose 2 µM), the cell count with WM115 was found to be 94.3%; in the assay on WM1716, 83.9%; in the assay on WM1745, 93.7%; with WM3526, 94.8%; in the assay with WM3619 it was 117%; in the assay on WM451Lu, 97.3%.
Consider `CC[C@]1(O)C[C@H]2CN(CCc3c([nH]c4ccccc34)[C@@](C(=O)OC)(c3cc4c(cc3OC)N(C=O)[C@H]3[C@@](O)(C(=O)OC)[C@H](OC(C)=O)[C@]5(CC)C=CCN6CC[C@]43[C@@H]65)C2)C1` [vincristine] + C[C@]12O[C@H](C[C@]1(O)CO)n1c3ccccc3c3c4c(c5c6ccccc6n2c5c31)CNC4=O [Lestaurtinib] (first compound 0.0001 µM, partner dose 0.004 µM), for which the cell count in the assay with WM115 stood at 49.7%; in the assay with WM1716, 45.8%; in the assay with WM1745 it was 87.8%; with WM3526 it was 54.4%; with WM3619, 44.1%; in the assay on WM451Lu it was 50.5%.
For the compound `NC(=O)c1ccc(N(C(N)=O)c2c(F)cccc2F)nc1-c1ccc(F)cc1F` + C[As](C)SC[C@H](NC(=O)CC[C@H](N)C(=O)O)C(=O)NCC(=O)O [Darinaparsin] (first compound 0.4 µM, partner dose 0.4 µM), the cell count amounted to 92.5% in the assay on WM115; 114% with WM1716; 107% in the assay with WM1745; 88.2% in the assay with WM3526; 101% with WM3619; 103% in the assay with WM451Lu.
Consider `O=C(O)[C@@H]1[O][Sb](=[O])([O][Sb]2(=[O])[O][C@H]([C@H](O)CO)[C@H](O)[C@H](C(=O)O)[O]2)[O][C@H]([C@H](O)CO)[C@@H]1O` (some centres undefined) [stibogluconate] + O=C(Oc1ccc([N+](=O)[O-])cc1)N1CCC(C(O)(c2ccc3c(c2)OCO3)c2ccc3c(c2)OCO3)CC1 [JZL184] (first compound 2 µM, partner dose 1 µM), for which the cell count in the assay on WM115 is 95.8%; with WM1716, 108%; in the assay with WM1745, 106%; in the assay on WM3526, 92.9%; with WM3619 it was 93%; with WM451Lu it was 92.4%.
For `C/C(O)=C(\C#N)C(=O)Nc1cc(Br)ccc1Br` + CC(C)CCN1c2nc(Nc3cc(F)c(O)c(F)c3)ncc2N(C)C(=O)C1C [BID1870] (first compound 2 µM, partner dose 0.2 µM), the cell count in the assay on WM115 was found to be 87.4%; in the assay with WM1716, 104%; in the assay on WM1745, 111%; in the assay with WM3526, 77.8%; with WM3619, 98.6%; in the assay with WM451Lu, 102%.
For `C[C@@H](N)c1ccc(C(=O)Nc2ccnc3[nH]ccc23)cc1` + O=C(Oc1ccc([N+](=O)[O-])cc1)N1CCC(C(O)(c2ccc3c(c2)OCO3)c2ccc3c(c2)OCO3)CC1 [JZL184] (first compound 0.4 µM, partner dose 1 µM), the cell count was found to be 107% in the assay with WM115; 71.3% with WM1716; 77.2% in the assay with WM1745; 102% with WM3526; 88.1% with WM3619; 101% in the assay on WM451Lu.
On to `Cn1nnc2c(C(N)=O)ncn2c1=O` [temozolomide] + C/C(O)=C(\C#N)C(=O)Nc1cc(Br)ccc1Br [LFM-A13] (first compound 2 µM, partner dose 2 µM), for which the cell count in the assay on WM115 came out at 97.5%; in the assay on WM1716 it was 93.2%; with WM1745 it was 108%; with WM3526 it was 84.8%; in the assay with WM3619, 134%; in the assay with WM451Lu, 96.9%.
In the case of `CC1(C)NC(=O)N(c2ccc([N+](=O)[O-])c(C(F)(F)F)c2)C1=O` [nilutamide] + Cc1cc(SCc2sc(-c3ccc(C(F)(F)F)c(F)c3)nc2C)ccc1OCC(=O)O [GW0742] (first compound 1 µM, partner dose 2 µM), the cell count in the assay on WM115 worked out at 98.6%; in the assay with WM1716 it was 104%; in the assay on WM1745, 90.8%; in the assay with WM3526 it was 88.1%; in the assay on WM3619, 104%; in the assay with WM451Lu, 112%.
As to `C[C@@H](N)c1ccc(C(=O)Nc2ccnc3[nH]ccc23)cc1` + C[As](C)SC[C@H](NC(=O)CC[C@H](N)C(=O)O)C(=O)NCC(=O)O [Darinaparsin] (first compound 0.4 µM, partner dose 0.4 µM), the cell count is 100% in the assay on WM115; 63.9% in the assay on WM1716; 80% with WM1745; 116% in the assay with WM3526; 115% in the assay with WM3619; 61% in the assay with WM451Lu.
Consider `CCc1ccc(CCOc2ccc(CC3SC(=O)NC3=O)cc2)nc1` (centres undefined) [pioglitazone] + O=C(Oc1ccc([N+](=O)[O-])cc1)N1CCC(C(O)(c2ccc3c(c2)OCO3)c2ccc3c(c2)OCO3)CC1 [JZL184] (first compound 2 µM, partner dose 1 µM), for which the cell count in the assay on WM115 turned out to be 93%; with WM1716, 97.7%; in the assay on WM1745 it was 88.5%; in the assay with WM3526, 80.2%; in the assay with WM3619 it was 88.6%; in the assay on WM451Lu, 81.3%.
`O=C(O)c1ccc(-c2c[nH]c3ncc(-c4ccccc4)cc23)cc1C1CCCC1` + C/C(O)=C(\C#N)C(=O)Nc1cc(Br)ccc1Br [LFM-A13] (first compound 0.16 µM, partner dose 2 µM): the cell count in the assay with WM115 turned out to be 93.6%; in the assay with WM1716 it was 100%; in the assay on WM1745 it was 96.6%; with WM3526 it was 113%; with WM3619, 97.1%; in the assay on WM451Lu, 103%.
`O=C(Nc1cccc(Cl)c1)Nc1ncc(CCNc2ncnc3ccsc23)s1` + C/C(O)=C(\C#N)C(=O)Nc1cc(Br)ccc1Br [LFM-A13] (first compound 0.0008 µM, partner dose 2 µM): the cell count with WM115 was found to be 67.6%; in the assay on WM1716, 107%; in the assay on WM1745, 84.1%; in the assay with WM3526 it was 91.6%; with WM3619, 84.6%; with WM451Lu it was 113%.
Consider `O=C(Nc1cc(C(F)(F)F)cc(C(F)(F)F)c1)c1cc(Cl)ccc1O` + Cn1cc(C2=C(c3cn(C4CCN(Cc5ccccn5)CC4)c4ccccc34)C(=O)NC2=O)c2ccccc21 [Enzastaurin] (first compound 0.016 µM, partner dose 0.8 µM), for which the cell count came to 106% in the assay on WM115; 122% in the assay with WM1716; 90.8% in the assay with WM1745; 130% with WM3526; 105% with WM3619; 122% with WM451Lu.
As to `OCc1c[nH]c2ccccc12` [Indole-3-carbinol] + C/C(O)=C(\C#N)C(=O)Nc1cc(Br)ccc1Br [LFM-A13] (first compound 0.8 µM, partner dose 2 µM), the cell count is 84.3% in the assay with WM115; 112% in the assay on WM1716; 95.4% with WM1745; 102% in the assay on WM3526; 82.3% in the assay on WM3619; 92.4% in the assay on WM451Lu.
For `CC1(C)NC(=O)N(c2ccc([N+](=O)[O-])c(C(F)(F)F)c2)C1=O` [nilutamide] + O=C(Oc1ccc([N+](=O)[O-])cc1)N1CCC(C(O)(c2ccc3c(c2)OCO3)c2ccc3c(c2)OCO3)CC1 [JZL184] (first compound 1 µM, partner dose 1 µM), the cell count with WM115 turned out to be 110%; in the assay with WM1716, 109%; in the assay with WM1745 it was 97.2%; in the assay with WM3526 it was 98%; with WM3619, 130%; in the assay with WM451Lu, 113%.
With `C[C@@H](Oc1cc(-c2cnn(C3CCNCC3)c2)cnc1N)c1c(Cl)ccc(F)c1Cl` [Crizotinib] + Cc1cc(SCc2sc(-c3ccc(C(F)(F)F)c(F)c3)nc2C)ccc1OCC(=O)O [GW0742] (first compound 0.2 µM, partner dose 2 µM), the cell count stood at 101% in the assay on WM115; 118% with WM1716; 107% with WM1745; 108% in the assay on WM3526; 100% with WM3619; 118% with WM451Lu.

The values above are taken from the supplement of paper PMC4604168 (melanoma cell lines).
